Source: the supplement of paper PMC4967469
IC50 is the fitted dose that halves viability relative to control wells, and lower means more sensitive; a fit beyond the top or the lowest dose is shown as a bound at that dose. AUC, from the same fit, is the share of area under the viability curve across the 256-fold dose range; values near 1 show little effect. For part of these data: A top dose marked as inferred was derived from the fitted curves, not read from the paper. For part of these data: Where an entry number is given, a second screen of the drug exists; the two often differ.

Experiments:
Assay in all cases: Viability of human cancer cell lines after 72 h of drug (GDSC screen)
Parthenolide = compound: C=C1C(=O)O[C@H]2[C@H]1CC/C(C)=C/CC[C@@]1(C)O[C@@H]21 [Parthenolide]; conditions: top dose 5 µM
Description: (§1)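 Human cancer cell lines in 384-well plates, medium with 10% serum, drug for 72 h over a 256-fold dose range (nine 2-fold or five 4-fold steps up to the top dose). Adherent lines were fixed and stained with the nucleic acid dye Syto60, suspension lines read with resazurin; signal relative to control wells, capped at 0 and 100%. One two-parameter sigmoid per drug and line, fitted in a mixed model over all curves with the slope shared within a line.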

PAC-1 = compound: C=CCc1cccc(/C=N/NC(=O)CN2CCN(Cc3ccccc3)CC2)c1O [PAC-1]; conditions: top dose 2.56 µM
Description: as §1

KIN001-135 = compound: COc1cc2ncn(-c3cc(OCc4ccccc4S(C)(=O)=O)c(C#N)s3)c2cc1OC [KIN001-135]; conditions: top dose 5 µM; top dose inferred
Description: as §1

BMS-708163 = compound: NC(=O)[C@@H](CCC(F)(F)F)N(Cc1ccc(-c2ncon2)cc1F)S(=O)(=O)c1ccc(Cl)cc1 [BMS-708163]; conditions: top dose 5 µM; screen: GDSC drug entry 1072; top dose inferred
Description: as §1

Q: Which AUC (Parthenolide) does the source give for ARH-77 (myeloma, suspension) here?
A: Its AUC is 0.934.

Q: And the IC50 (Parthenolide)?
A: The IC50 was over 5 µM.

Q: What about the AUC (PAC-1) of the same cell line?
A: The AUC was 0.849.

Q: What about the IC50 (PAC-1) of the same cell line?
A: Its IC50 is 1.82 µM.

Q: What about the AUC (KIN001-135) of the same cell line?
A: Its AUC is 0.972.

Q: And the IC50 (KIN001-135)?
A: The IC50 was over 5 µM.

Q: What about the AUC (BMS-708163) of the same cell line?
A: Its AUC is 0.988.

Q: And the IC50 (BMS-708163)?
A: Its IC50 is over 5 µM.

Q: What does the source list for HSC-39 (stomach, suspension)?
A: AUC (Parthenolide): 0.991; IC50 (Parthenolide): > 5 µM; AUC (PAC-1): 0.955; IC50 (PAC-1): > 2.56 µM; AUC (KIN001-135): 0.99; IC50 (KIN001-135): > 5 µM; AUC (BMS-708163): 0.977; IC50 (BMS-708163): > 5 µM

Q: Which results are given for HUTU-80 (digestive system, adherent)?
A: AUC (Parthenolide): 0.947; IC50 (Parthenolide): > 5 µM; AUC (PAC-1): 0.978; IC50 (PAC-1): > 2.56 µM; AUC (KIN001-135): 0.975; IC50 (KIN001-135): > 5 µM; AUC (BMS-708163): 0.962; IC50 (BMS-708163): > 5 µM

Q: Which AUC (Parthenolide) does the source give for ES3 (Ewing sarcoma, adherent) here?
A: Its AUC is 0.985.

Q: And the IC50 (Parthenolide)?
A: Its IC50 is over 5 µM.

Q: What about the AUC (PAC-1) of the same cell line?
A: Its AUC is 0.885.

Q: What about the IC50 (PAC-1) of the same cell line?
A: The IC50 was over 2.56 µM.

Q: And the AUC (KIN001-135)?
A: Its AUC is 0.946.

Q: And the IC50 (KIN001-135)?
A: Its IC50 is over 5 µM.

Q: And the AUC (BMS-708163)?
A: Its AUC is 0.895.

Q: And the IC50 (BMS-708163)?
A: The IC50 was over 5 µM.

Q: With SJSA-1 (bone, adherent) as the cell line, how does the AUC (Parthenolide) read?
A: The AUC was 0.954.

Q: What about the IC50 (Parthenolide) of the same cell line?
A: The IC50 was over 5 µM.

Q: What about the AUC (PAC-1) of the same cell line?
A: Its AUC is 0.882.

Q: What about the IC50 (PAC-1) of the same cell line?
A: The IC50 was over 2.56 µM.

Q: And the AUC (KIN001-135)?
A: Its AUC is 0.96.

Q: What about the IC50 (KIN001-135) of the same cell line?
A: Its IC50 is over 5 µM.

Q: And the AUC (BMS-708163)?
A: The AUC was 0.978.

Q: And the IC50 (BMS-708163)?
A: The IC50 was over 5 µM.

Q: Which results are given for GCIY (stomach, adherent)?
A: AUC (Parthenolide): 0.801; IC50 (Parthenolide): 2.81 µM; AUC (PAC-1): 0.938; IC50 (PAC-1): > 2.56 µM; AUC (KIN001-135): 0.982; IC50 (KIN001-135): > 5 µM; AUC (BMS-708163): 0.93; IC50 (BMS-708163): > 5 µM

Q: MOLP-8 (myeloma, suspension) was tested. Which AUC (Parthenolide) did it give?
A: Its AUC is 0.814.

Q: And the IC50 (Parthenolide)?
A: The IC50 was 2.6 µM.

Q: And the AUC (PAC-1)?
A: Its AUC is 0.877.

Q: And the IC50 (PAC-1)?
A: The IC50 was 2.39 µM.

Q: What about the AUC (KIN001-135) of the same cell line?
A: The AUC was 0.987.

Q: What about the IC50 (KIN001-135) of the same cell line?
A: The IC50 was over 5 µM.

Q: What about the AUC (BMS-708163) of the same cell line?
A: Its AUC is 0.987.

Q: What about the IC50 (BMS-708163) of the same cell line?
A: The IC50 was over 5 µM.

Q: Which AUC (Parthenolide) does the source give for LB996-RCC (kidney, adherent) here?
A: Its AUC is 0.976.

Q: What about the IC50 (Parthenolide) of the same cell line?
A: The IC50 was over 5 µM.

Q: And the AUC (PAC-1)?
A: Its AUC is 0.975.

Q: What about the IC50 (PAC-1) of the same cell line?
A: Its IC50 is over 2.56 µM.

Q: And the AUC (KIN001-135)?
A: Its AUC is 0.981.

Q: And the IC50 (KIN001-135)?
A: The IC50 was over 5 µM.

Q: And the AUC (BMS-708163)?
A: Its AUC is 0.941.

Q: And the IC50 (BMS-708163)?
A: The IC50 was over 5 µM.

Q: What does the source list for VAL (B-cell lymphoma, suspension)?
A: AUC (Parthenolide): 0.776; IC50 (Parthenolide): 2.01 µM; AUC (PAC-1): 0.889; IC50 (PAC-1): > 2.56 µM; AUC (KIN001-135): 0.975; IC50 (KIN001-135): > 5 µM; AUC (BMS-708163): 0.981; IC50 (BMS-708163): > 5 µM

Q: How did the AUC (Parthenolide) turn out when HT (B-cell lymphoma, suspension) was run?
A: The AUC was 0.99.

Q: What about the IC50 (Parthenolide) of the same cell line?
A: The IC50 was over 5 µM.

Q: What about the AUC (PAC-1) of the same cell line?
A: Its AUC is 0.86.

Q: What about the IC50 (PAC-1) of the same cell line?
A: The IC50 was 1.87 µM.

Q: And the AUC (KIN001-135)?
A: Its AUC is 0.989.

Q: What about the IC50 (KIN001-135) of the same cell line?
A: Its IC50 is over 5 µM.

Q: What about the AUC (BMS-708163) of the same cell line?
A: Its AUC is 0.989.

Q: What about the IC50 (BMS-708163) of the same cell line?
A: The IC50 was over 5 µM.

Q: What does the source list for TUR (B-cell lymphoma, suspension)?
A: AUC (Parthenolide): 0.986; IC50 (Parthenolide): > 5 µM; AUC (PAC-1): 0.917; IC50 (PAC-1): > 2.56 µM; AUC (KIN001-135): 0.978; IC50 (KIN001-135): > 5 µM; AUC (BMS-708163): 0.989; IC50 (BMS-708163): > 5 µM

Q: Which results are given for ST486 (Burkitt lymphoma, suspension)?
A: AUC (Parthenolide): 0.954; IC50 (Parthenolide): > 5 µM; AUC (PAC-1): 0.791; IC50 (PAC-1): 1.01 µM; AUC (KIN001-135): 0.984; IC50 (KIN001-135): > 5 µM; AUC (BMS-708163): 0.99; IC50 (BMS-708163): > 5 µM

Q: How did the AUC (Parthenolide) turn out when KNS-81-FD (glioma, adherent) was run?
A: Its AUC is 0.978.

Q: And the IC50 (Parthenolide)?
A: Its IC50 is over 5 µM.

Q: What about the AUC (PAC-1) of the same cell line?
A: Its AUC is 0.98.

Q: What about the IC50 (PAC-1) of the same cell line?
A: Its IC50 is over 2.56 µM.

Q: What about the AUC (KIN001-135) of the same cell line?
A: The AUC was 0.978.

Q: What about the IC50 (KIN001-135) of the same cell line?
A: Its IC50 is over 5 µM.

Q: And the AUC (BMS-708163)?
A: The AUC was 0.917.

Q: And the IC50 (BMS-708163)?
A: The IC50 was over 5 µM.

Q: With BL-41 (Burkitt lymphoma, suspension) as the cell line, how does the AUC (Parthenolide) read?
A: Its AUC is 0.877.

Q: What about the IC50 (Parthenolide) of the same cell line?
A: The IC50 was 3.05 µM.

Q: And the AUC (PAC-1)?
A: The AUC was 0.84.

Q: And the IC50 (PAC-1)?
A: The IC50 was 1.19 µM.

Q: What about the AUC (KIN001-135) of the same cell line?
A: The AUC was 0.993.

Q: And the IC50 (KIN001-135)?
A: The IC50 was over 5 µM.

Q: And the AUC (BMS-708163)?
A: Its AUC is 0.99.

Q: And the IC50 (BMS-708163)?
A: Its IC50 is over 5 µM.

Q: MFM-223 (breast, adherent) was tested. Which AUC (Parthenolide) did it give?
A: The AUC was 0.989.

Q: What about the IC50 (Parthenolide) of the same cell line?
A: Its IC50 is over 5 µM.

Q: What about the AUC (PAC-1) of the same cell line?
A: Its AUC is 0.988.

Q: And the IC50 (PAC-1)?
A: Its IC50 is over 2.56 µM.

Q: And the AUC (KIN001-135)?
A: Its AUC is 0.984.

Q: What about the IC50 (KIN001-135) of the same cell line?
A: The IC50 was over 5 µM.

Q: What about the AUC (BMS-708163) of the same cell line?
A: The AUC was 0.986.

Q: And the IC50 (BMS-708163)?
A: Its IC50 is over 5 µM.
